Read counts are not given, so values of variants with three or more changes are uncertain.
B1: LINE1-mini (parent)
chain: GGCAGAGCUCAACACAGCGUGGCAAAGUGGCUGUGGCUAGACUGCC

Variants of: B1
Experiment: self-cleavage, relative activity (ratio to wild type); higher = more cleavage; in vitro, sequencing; the parent is a self-cleaving ribozyme

Row | Variant | self-cleavage
1 | G7U C10G G17U G22U | 0.03
2 | G7U C10G G21C U43G | 0
3 | G7U C10G G27C G36C | 0
4 | G7U C10G G29U | 0.04
5 | G7U C10G U43A | 0.03
6 | G7U C10U A14U C18U U38C | 0.11
7 | G7U C10U G21A G22C G35C G36C | 0.06
8 | G7U C10U G21C | 0.04
9 | G7U C10U G30U G36U | 0.01
10 | G7U C10U U20C C23G G36A | 0
11 | G7U C13A A24C A25C | 0.06
12 | G7U C13A A24C G33U | 0.03
13 | G7U C13A A26U U28A U34G | 0.14
14 | G7U C13A C15U | 0.26
15 | G7U C13A C42U | 0.29
16 | G7U C13A G22A G27A C31A A39G | 0.08
17 | G7U C13A G33C C37U | 0.05
18 | G7U C13G G27A | 0.01
19 | G7U C13G U32A C37U | 0.06
20 | G7U C13G U32G | 0.02
21 | G7U C13U A14G G17U G19C U32C | 0.13
22 | G7U C15A A24C G33U U38C A39C | 0.05
23 | G7U C15A C18A U34A | 0.05
24 | G7U C15A C18U G40U | 0.18

Row | Variant | self-cleavage
25 | G7U C15A G19C G27U C37U C45A | 0.02
26 | G7U C15A U34A | 0.1
27 | G7U C15G A25C G29U A39G | 0.05
28 | G7U C15G C18A C37U C46U | 0.05
29 | G7U C15G C18U G40U | 0.12
30 | G7U C15G U34C | 0.13
31 | G7U C15U A16G G27U G36A G40A | 0.08
32 | G7U C15U A16U C31G | 0.09
33 | G7U C18A A26C A41C C45U | 0.17
34 | G7U C18A A26G C46U | 0.03
35 | G7U C18A C45U | 0.01
36 | G7U C18A G22A A24G A25U G35U | 0.09
37 | G7U C18A U20G | 0.11
38 | G7U C18G A25G | 0.21
39 | G7U C18G U38C C46U | 0.08
40 | G7U C18U A24U C45G | 0.31
41 | G7U C18U G19A U20C G27U G44A | 0.07
42 | G7U C23U A39G | 0.04
43 | G7U C23U C31G | 0.34
44 | G7U C23U G44C | 0.06
45 | G7U C31A A39U | 0.19
46 | G7U C31G U32G | 0.1
47 | G7U C31U C37A G40C | 0.01
48 | G7U C31U G35A C45A | 0.08

Row | Variant | self-cleavage
49 | G7U C37A G40A | 0.12
50 | G7U C42G C46A | 0.22
51 | G7U G17A A24U | 0.09
52 | G7U G17A G22A C23A G36A C37G A41G | 0.29
53 | G7U G17A G44A | 0
54 | G7U G17A U20A C23A A24G G29A A41G | 0.09
55 | G7U G17C C31G U43G | 0.07
56 | G7U G17C G19C A24U G27U | 0.04
57 | G7U G17C G27C C31A U34A | 0.03
58 | G7U G17C G30A U38G | 0.04
59 | G7U G17U A41C C46A | 0.04
60 | G7U G17U G35A G40C | 0.06
61 | G7U G17U G36U C46A | 0.14
62 | G7U G17U U28C A39G G40A C45G | 0.04
63 | G7U G19A A25U | 0.05
64 | G7U G19A G29A U38A | 0.01
65 | G7U G19U C45G | 0.04
66 | G7U G21A G22U A26C C31G | 0.09
67 | G7U G21C G40A | 0.15
68 | G7U G22A U34C A39G | 0.03
69 | G7U G27U C31U G33C | 0.03
70 | G7U G27U G33U | 0.06
71 | G7U G27U U38A | 0.11
72 | G7U G29A C31U | 0.05

Row | Variant | self-cleavage
73 | G7U G29A G30U C31A | 0.11
74 | G7U G29C G30A | 0.03
75 | G7U G29U C31G | 0.06
76 | G7U G29U C37G U43A | 0.02
77 | G7U G29U G30C U38A | 0.01
78 | G7U G30A C37U | 0.03
79 | G7U G30A G36U | 0.07
80 | G7U G30C G40U | 0.35
81 | G7U G30U U38A | 0.06
82 | G7U G33C C42G | 0.08
83 | G7U G33U G35U G40U C46A | 0.03
84 | G7U G35A C46G | 0.36
85 | G7U G35C U38A U43C | 0.09
86 | G7U G35U C45A | 0.1
87 | G7U G35U U43A | 0.46
88 | G7U G36A C37G U43C | 0.14
89 | G7U G40U U43A | 0.13
90 | G7U U9A A16C C31A | 0.21
91 | G7U U9A A25U A26U G35C | 0.03
92 | G7U U9A A25U G44A | 0.7
93 | G7U U9A C10G G22C G33U | 0.05
94 | G7U U9A C18U C23A | 0.13
95 | G7U U9A C45G | 0.21
96 | G7U U9A G19U | 0.1

Row | Variant | self-cleavage
97 | G7U U9A G22A A26C | 0.06
98 | G7U U9C A24G A26G | 1
99 | G7U U9C C18U A26U C31A U38C | 0.04
100 | G7U U9C G19A G29A G36C C42U | 0.03
101 | G7U U9C G19C | 0.03
102 | G7U U9C G40A C45U | 0.06
103 | G7U U9G A24G G27C | 0.01
104 | G7U U9G C15U U43C | 0.09
105 | G7U U9G C42U C46G | 0.01
106 | G7U U9G G17A | 0.21
107 | G7U U9G G17C G30A | 0.13
108 | G7U U9G G44U | 0.05
109 | G7U U20A C42A | 0.06
110 | G7U U20A U28A A39G | 0.02
111 | G7U U20A U38A | 0.03
112 | G7U U20G C31U | 0.04
113 | G7U U28C C31U | 0.03
114 | G7U U28C U32G | 0.03
115 | G7U U32C C37U | 0.03
116 | G7U U34A C37U | 0.02
117 | G7U U34C A41C | 0.19
118 | G7U U34G G40U | 0.13
119 | C8A A11C A25U G33A | 0.03
120 | C8A A11C U28G | 0.02

Row | Variant | self-cleavage
121 | C8A A11G A14G G40A U43G | 0.01
122 | C8A A11G C15A A25G C45U | 0.06
123 | C8A A11G G19A G30U C45G | 0.03
124 | C8A A11U A12C G40A C42A C46U | 0
125 | C8A A11U A14G C15A G22U C37U | 0.03
126 | C8A A11U A14U | 0.04
127 | C8A A11U A41U U43G | 0.03
128 | C8A A11U G22C C45U | 0.02
129 | C8A A11U G36A C45G | 0.01
130 | C8A A12C A24G C45A | 0.04
131 | C8A A12C C23U U43A | 0.02
132 | C8A A12C G19A G29U | 0.01
133 | C8A A12C G21U C23G G29U | 0.02
134 | C8A A12C U28A | 0.04
135 | C8A A12G A16G | 0.04
136 | C8A A12G G30A G40U | 0.03
137 | C8A A12G G30U | 0.08
138 | C8A A12U U20C | 0.1
139 | C8A A12U U28C U38A | 0.59
140 | C8A A14C C46G | 0.14
141 | C8A A14C G21A C45U | 0.02
142 | C8A A14C G22C C23U G27A U32G | 0.03
143 | C8A A14C G22U G36C | 0.21
144 | C8A A14C G33U | 0.15

Row | Variant | self-cleavage
145 | C8A A14G C37U | 0.1
146 | C8A A14G G19U G27U | 0.27
147 | C8A A14G G21A C42U | 0.18
148 | C8A A14G U20G | 0.05
149 | C8A A14U A16C G27A | 0.31
150 | C8A A14U A16G U20G A24G | 0.13
151 | C8A A14U C15U G21C U38A | 0.02
152 | C8A A14U C37G | 0.05
153 | C8A A16C C31G U34C C45U | 0.02
154 | C8A A16U U43A | 0.08
155 | C8A A24C A25C | 0.14
156 | C8A A24C A26U | 0.22
157 | C8A A24U C31U U32C U38G | 0.11
158 | C8A A24U G36C G40U G44C | 0.13
159 | C8A A24U U32G G44U | 0.36
160 | C8A A25C G29C G35C | 0.03
161 | C8A A25C U43A | 0.01
162 | C8A A25G G27U G29U | 0.34
163 | C8A A25G U28G G33C G35C C42U G44U | 0.11
164 | C8A A25U G29U | 0.41
165 | C8A A25U G33U G40A | 0.16
166 | C8A A26C A39G A41U | 0.03
167 | C8A A26C C46U | 0.05
